According to PubChem BioAssay AID686970 (National Center for Advancing Translational Sciences (NCATS), 2013):
In all, about 360,000 compounds went through this assay and about 6,000 (1.7%) were called active. Inconclusive means that the source gave no clear call. Such entries were picked first, then a sample of the others. The call rests on the fitted dose curve; in most records, active means well fitted cell-killing curve with a large enough effect; inconclusive means small, poorly fitted or top-dose-only effect, or effect the other way; inactive means flat fitted curve, though single readings scatter. No potency is given beside an inconclusive call; the fits are too rough.

Experiment: qHTS for induction of synthetic lethality in tumor cells producing 2HG: qHTS for the HT-1080-NT fibrosarcoma cell line;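 further: NT is the 2HG producing partner of a matched IDH1 knockdown line; nearly all actives have a fitted effect of over 55% in size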;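 on activity, negative = less viability: 0% = DMSO-treated cells and -100% = media-only wells without cells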
Conditions: HT-1080-NT fibrosarcoma viability, CellTiter-Glo ATP luminescence, 48 h; activity, negative = less viability: at 46.1 µM (top of the series) unless noted
Method in brief: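 HT-1080-NT fibrosarcoma cells (2HG-overproducing), 750 cells/well in RPMI with 5% FBS, dosed after 2 h and incubated 48 h at 37C. CellTiter-Glo luminescence normalized to DMSO and no-cell wells; concentration-response curves fitted and classed.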
Potency means the concentration at half of the fitted maximal effect; tags describe the fitted curve by direction and shape.

SMILES	Potency	activity, negative = less viability
COc1ccc(C2CC(c3cccs3)=Nc3ccccc3S2)cc1 (configuration not stated)	inconclusive [cytotoxic, single point]	
Cc1cc(C)cc(NC(=O)c2c(C)nc3ccccn23)c1	inactive	
Cc1cccc2c(C(=O)N3CCN(c4ccccc4)CC3)cc(-c3ccncc3)nc12	active: 1.3 µM	
Cn1c(Cl)cnc1C1CC(=O)c2cc(Cl)ccc2O1 (configuration not stated)	inconclusive [cytotoxic, single point]	
CS(=O)(=O)N1c2ccccc2[C@@]2(Br)C[C@H]3C(=O)N[C@@H](Cc4ccccc4)C(=O)N3[C@@H]12	inactive	
Cc1nc2ccccc2n1CCc1nc2c3ccccc3nc(SCC(=O)NCc3ccco3)n2n1	inconclusive [cytotoxic, single point]	
COc1ccc(C(Nc2cccc([N+](=O)[O-])c2)P(=O)(OC(C)C)OC(C)C)cc1 (configuration not stated)	inactive	
COc1ccc(C(=O)NC(=S)Nc2ccc(Cl)c(C(=O)O)c2)cc1	inactive	
Cc1cc(/C=N/NC(=O)Cn2c3ccccc3c(=O)c3ccccc32)c(C)n1-c1ccccc1		inconclusive: -30.1% [cytotoxic]
COc1ccc(-c2c3c(=O)n(C)c(=O)n(C)c3cn2-c2ccccc2O)cc1	inactive	
Cc1ccc(N2C(=S)N=C(Nc3ccccc3C)C23CCOC(C)(C)C3)cc1 (configuration not stated)	inactive	
COc1cc(OC)c(C2=Nc3ccc(Br)cc3C(c3ccccc3)N2CC(=O)NN)cc1OC (configuration not stated)	inactive	
COc1cc(NC(=O)CCl)ccc(=O)c1	active: 20.6 µM	
CCCCCCC[C@@H](C/C=C/CCC(=O)N(C)C/C(=C/Cl)C/C(=C\C(=O)N1CC(OC)=CC1=O)OC)OC	active: 5.8 µM	
COc1ccc(-c2cc(CNc3nc(NC(C)C)nc4cc(-c5ccccc5)sc34)on2)cc1	active: 10.3 µM	
N#Cc1c(NC(=O)CSc2ncn[nH]2)sc2c1CCCCC2	inconclusive [cytotoxic, single point]	
CCCC1=Nc2cc(C(=O)N3CCC(C(N)=O)CC3)ccc2Sc2ccccc21	inactive	
COc1cccc(CNC(=O)c2nnn(CC(=O)Nc3cccc(C)c3)c2N)c1	inconclusive [cytotoxic, single point]	
O=C(Nc1cc(-c2nc3ncccc3o2)ccc1Cl)c1ccc([N+](=O)[O-])o1	inconclusive [cytotoxic, partial curve, poor fit]	
COc1cc2c(O)c3c(c(-c4ccc5c(c4)OCO5)c2cc1OC)C(=O)OC3	active: 2.51 µM	
CSc1nc(SCC(=O)NCc2ccco2)c2c3c(sc2n1)COC(C)(C)C3	active: 7.94 µM	
Cc1ccc2[nH]c(=O)c(CN(Cc3cccnc3)C(=S)NCCCN(C)C)cc2c1	inactive	
CCCn1nc([N+](=O)[O-])c(C(C#N)c2nc3ccccc3o2)c(Cl)c1=O (configuration not stated)	inconclusive [cytotoxic, single point]	
CCc1nc2ccc(C(=O)N(C)Cc3ccccc3)cn2c1N(C)Cc1ccc(OC)cc1	inconclusive [cytotoxic, single point]	
CCCCCCCCCCOC(=O)Cn1c(COc2ccccc2OC)[n+](C)c2ccccc21	active: 14.6 µM	
O=C(NCCCO)c1cc2c([nH]c3ccccc32)c(-c2ccc(F)cc2)n1	inconclusive [cytotoxic, partial curve]	

SMILES	Potency	activity, negative = less viability
CCC1CCCCN1CCCNC(=O)c1cc2c(Cl)nc3ccccc3c2s1 (configuration not stated)	inconclusive [cytotoxic, single point]	
CCOc1ccccc1Nc1cc2n(c(=O)n1)CCc1cc(OC)c(OC)cc1-2	inactive	
O=C1COc2ccccc2C(c2nc3ccccc3[nH]2)N1C1CC1 (configuration not stated)	inactive	
COc1ccccc1N1CCN(C(c2ccccc2Cl)c2nnnn2C(C)(C)C)CC1 (configuration not stated)	inactive	
NNc1nnc(-c2ccccc2)c(-c2ccccc2)n1	inconclusive [cytotoxic, single point]	
O=C(OCC(=O)C12CC3CC(CC(C3)C1)C2)c1ccc(O)cc1O	active: 13 µM	
CCCCC(=O)/C=C/n1c(=S)oc2ccccc21	active: 10.3 µM	
COCC(=O)Nc1nc(-c2ccc([N+](=O)[O-])cc2)cs1	inactive	
O=C(CSc1ccccc1)Nc1nnc(COc2ccc(Cl)cc2)s1	inactive	
Cc1c(C(=O)NCc2cccc(Cl)c2)sc(=O)n1Cc1cccc(F)c1	inconclusive [cytotoxic, single point]	
Cc1ccc(C)c(N2CCN(C3CCCCC3NS(=O)(=O)c3ccccc3)CC2)c1 (configuration not stated)	inactive	
CN(CC(=O)NCCCc1ccccc1)Cc1ccc(Br)cc1		inconclusive: -8.02%
Cc1cc(C)c(C#N)c(Oc2ccc(O)cc2)n1	inconclusive [rising, single point]	
CCOC(=O)C1(Cc2ccccc2C)CCCN(C(=O)CSC)C1 (configuration not stated)	inactive	
COc1ccc(/C=N/OCC(=O)N=Nc2c(O)[nH]c3ccc(Br)cc23)cc1	inconclusive [rising, partial curve]	
COCc1cc(C)nc(SCC(=O)Nc2nc(C)cs2)c1C#N		inconclusive: 3.4%
C=C(C)COc1ccc(-c2n[nH]c(C)c2-c2ccc(Br)cc2)c(O)c1	active: 10 µM	
Cc1cc(C)c2cc(CN(Cc3cccnc3)C(=O)c3ccc(F)cc3)c(Cl)nc2c1	inconclusive [cytotoxic, partial curve]	
CCCCn1c(N)c(N(CCOC)C(=O)c2cc(CC)c(C)s2)c(=O)[nH]c1=O	inactive	
Cc1cccc(C=Nc2ccccc2C(N)=O)c1	active: 10 µM	
COc1ccc(-c2cnc3c(NC=O)cc(-c4ccc(C(=O)N5CCOCC5)cc4)cn23)cc1OC	inconclusive [cytotoxic, single point]	
Cc1c(Cl)c([N+](=O)[O-])nn1Cc1ccc(C(=O)N/N=C\c2cccc(Br)c2)o1	inconclusive [cytotoxic, single point]	
CCOC(=O)c1c(NC(C)=O)sc2c1CCC(C=O)=C2Sc1ccccc1	active: 14.1 µM	
COc1cccc(Oc2nc(-c3ccccc3O)nc3ccccc23)c1	inactive	
CCCCOc1ccc(C(=O)CCN2CCOCC2)cc1	inconclusive [cytotoxic, single point]	
CS(=O)(=O)N1CCCCC1c1cc(C(=O)Nc2ccc3c(c2)OCO3)no1 (configuration not stated)	inactive	

SMILES	Potency	activity, negative = less viability
CCN(CC)S(=O)(=O)c1ccc(N2CCCC2)c(NC(=O)Cc2ccccc2)c1	inactive	
O=C(Nc1cccnc1)c1ccc(COc2ccccc2Cl)o1	inconclusive [cytotoxic, single point]	
O=C(Nc1ccccc1Cl)/C(Cl)=C(\Cl)S(=O)c1ccccc1 (configuration not stated)	active: 20.6 µM	
Cc1cccc(OC2CCN(Cc3c(C(=O)N4CCCC4)nc4ccccn34)CC2)c1	inactive	
CN(Cc1ccccc1)c1ccc(C(CC(N)=O)NC(=O)c2ccc(Br)cc2)cc1[N+](=O)[O-] (configuration not stated)	inconclusive [cytotoxic, partial curve]	
COc1ccc(CNC(=O)Cn2nnc3ccccc3c2=O)cc1	inactive	
CCOC(=O)C1(CCc2ccccc2)CCN(Cc2cccc3nccnc23)CC1	inactive	
Cc1ccc(Nc2nnc(-c3ccc(N4CCOCC4)c([N+](=O)[O-])c3)c3ccccc23)cc1	inactive	
Cc1ccc(CNC(=O)CSc2c3c(nc4cc(Cl)ccc24)CCCC3)o1	inconclusive [cytotoxic, single point]	
COc1cc(C(=O)NNC(=S)Nc2ccc(S(N)(=O)=O)cc2)cc(OC)c1OC	inconclusive [cytotoxic, single point]	
COC(=O)C1C(=O)C2=C(CC1C)NC(C)=C(C(=O)OC1CCCC1)C2c1ccc(N(C)C)cc1 (configuration not stated)	inconclusive [cytotoxic, single point]	
O=C(c1ccc2c(c1)OCO2)C1CCCN(C2CCN(CCc3ccccc3)CC2)C1 (configuration not stated)	active: 10.3 µM	
CCN1C(=O)C(CC(=O)Nc2ccc(OC)cc2)N(CCCN2CCN(c3ccc(OC)cc3)CC2)C1=S (configuration not stated)	inconclusive [cytotoxic, partial curve]	
Cn1c(=O)[nH]c(=O)c2c1nc(Br)n2CC(O)COc1ccc(Cl)cc1 (configuration not stated)	inconclusive [cytotoxic, single point]	
O=c1oc2ccccc2cc1-c1csc(Nc2nc3c(F)cccc3s2)n1	inactive	
COc1cccc(C(C)(O)c2nc(-c3cccc(C(F)(F)F)c3)cs2)c1 (configuration not stated)	active: 18.4 µM	
CCOC(=O)C1=CCN(S(=O)(=O)c2ccc(C)cc2)C1c1cccc(Br)c1 (configuration not stated)	inactive	
O=C(NCCc1c[nH]c2ccccc12)C(=O)c1c[nH]c2ccccc12		inconclusive: 1.63% [cytotoxic]
CC(C)(C)OC(=O)N1CCCN(C(c2ccnc3ccccc23)c2nnnn2-c2ccc3c(c2)OCCO3)CC1 (configuration not stated)	active: 23.1 µM	
NS(=O)(=O)c1ccc(CCNC(=O)c2cc(S(=O)(=O)N3CCCCC3)ccc2Cl)cc1	inactive	
COc1ccc(N(C(C)=O)S(=O)(=O)c2cccc3cccnc23)cc1	inactive	
O=C(CCCCCn1c(SCc2ccncc2)nc2ccccc2c1=O)NCc1ccco1	inconclusive [cytotoxic, single point]	
O=C(Nc1ccc2c(c1)Cc1cc([N+](=O)[O-])ccc1-2)C(F)(F)F	inactive	
CCOc1cc(C)c(S(=O)(=O)Nc2ccc(F)cc2)cc1C	inconclusive [cytotoxic, single point]	
CCO[C@@H]1OC(C(=O)NCc2nc3ccccc3[nH]2)=C[C@H](C(C)(C)C)[C@H]1CCCO	active: 3.26 µM	
